This experiment has as its system NCI-H322M lung. Description: NCI-60 cell line screen, 48 h.

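Where inhibition never reached the appropriate level, the endpoint shown equals the highest concentration tested. Otherwise, values were interpolated linearly from a five-concentration, 48-hour dose response in 96-well plates. Here, GI50 denotes the concentration required for 50% inhibition of growth. At the TGI there is no net growth.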 Some results are limits rather than exact numbers.

For `Cn1ncc2c(N)nc(Oc3ccccc3-c3ccccc3)nc21`, the GI50 is 27.2 µM and the TGI was over 100 µM.
In the case of `N#Cc1c(NC(=O)c2ccc(C(F)(F)F)c(Cl)c2)sc2c1CCC(=O)C2`, the GI50 is 3.88 µM and the TGI was determined as 18.6 µM.
Take `NS(=O)(=O)c1cccc(Nc2nc(SCC(=O)c3ccc(F)cc3)nc3ccccc23)c1`: the GI50 is 16.5 µM and the TGI is over 57.7 µM.
The like results for `CN1CCN(Cc2ccc(NC(=O)c3cncc(C#Cc4cnc5ccc(N[C@@H]6CCOC6)nn45)c3)cc2C(F)(F)F)CC1` were, in that order, 0.193 µM and 0.592 µM.
Regarding `O=C(CNc1nc(-c2ccccc2)cs1)Nc1cccc([N+](=O)[O-])c1`, the GI50 was 0.359 µM and the TGI was 1.34 µM.
`CCOC(=O)C(Cc1ccccc1)N1C(=O)/C(=C/N2N=C(c3ccc(OC)cc3)CC2c2ccc3ccccc3c2)SC1=S` (configuration not stated): the GI50 was 4.13 µM and the TGI was 15.4 µM.

Source of the values: PubChem BioAssay (NCI).
